The source gives no read counts; variants with many changes may rest on few reads.
B1: LINE1-full (parent)
chain: UACGUAGGUGGUUUUCCCCUGAUAGUGCUAAGGGGGCCUGGAAGUUUGGACUGGGCAGAGCUCAACACAGCGUGGCAAAGUGGCUGUGGCUAGACUGCCUCUCUGGAUUCCUCGUCACUCAGCAGGGCAUCUCUGAGAGAAAUGCC

Variants of: B1
Assay: self-cleavage, relative activity (ratio to wild type); higher = more cleavage; in vitro, sequencing; the parent is a self-cleaving ribozyme

| Variant | self-cleavage |
| --- | --- |
| A94G U119C A140G C145U | 0.87 |
| A94G U130C A142U | 0.16 |
| A94G U132C A138G | 0.3 |
| A94U A107G A136G | 0.3 |
| A94U A107U U108C | 0.19 |
| A94U A129G A138G | 0.49 |
| A94U A142G C146A | 0.31 |
| A94U G97A C145G | 0.02 |
| A94U U102C A141G A142G | 0.29 |
| A94U U115C C123U C128A A129G G144A | 0.51 |
| A94U U134G A142G | 0.41 |
| C95A A121U A138U | 0.07 |
| C95U U115C C131U U134G | 0.35 |
| U96A A121C U130C C131U | 0.09 |
| U96A A121C U143A | 0.06 |
| U96A A121G G125C | 0.08 |
| U96A A129G U143C | 0.18 |
| U96A A136G A142G | 0.14 |
| U96A G106C U119C A129G | 0.04 |
| U96A U100A C111U | 0.07 |
| U96A U100C U108C A121G | 0.19 |
| U96A U102C A136U | 0.07 |
| U96A U102C U134C A142C | 0 |
| U96A U104C C116U | 0.06 |

| Variant | self-cleavage |
| --- | --- |
| U96A U108A U112C | 0.04 |
| U96A U109C U143G | 0.11 |
| U96C A107G U115C | 0.21 |
| U96C A107U A142G | 0 |
| U96C A117U A141G | 0.12 |
| U96C A121C A140G | 0.18 |
| U96C A121U A129G | 0.07 |
| U96C A121U A141G | 0.15 |
| U96C A124G U132C | 0 |
| U96C A124U U143C | 0.13 |
| U96C A129U U134A | 0.06 |
| U96C A138G A140U | 0.24 |
| U96C C101A A140G | 0.08 |
| U96C G127A A142G | 0.04 |
| U96C U100A A140G | 0 |
| U96C U100A U130C | 0.57 |
| U96C U102C U134C | 0.09 |
| U96C U109A U115A | 0.03 |
| U96C U109C C146A | 0.1 |
| U96C U115C A140G | 0.22 |
| U96C U132C C146U | 0 |
| U96C U134C G139A | 0.14 |
| G97A G106A A140G | 0.38 |
| G97A U100A U115C | 0.39 |

| Variant | self-cleavage |
| --- | --- |
| G97A U100C C116U A129G U132C | 0.12 |
| G97A U109A A142C | 0.07 |
| G97A U112A A129C A138G | 0.38 |
| G97U C101U U102C | 0.08 |
| G97U U119C U134C A141G | 0.18 |
| C98G U115C U119C | 0.5 |
| C98U U108A A141C | 0.16 |
| C98U U112C U119C | 0.2 |
| C99U U108C U109C A124G | 0 |
| C99U U130C A142G | 0.12 |
| U100A A107G A124U | 1.53 |
| U100A A121U U130C | 0.8 |
| U100A C116A U119C | 0.84 |
| U100A C118U G144U | 0.62 |
| U100A G105A U115C | 1.54 |
| U100A U102C U130A | 0.85 |
| U100A U104G U132C | 0 |
| U100C A121G A142G | 0 |
| U100C A136U U143C | 2.26 |
| U100C A141G U143G | 2.02 |
| U100C C113U C133A | 2.19 |
| U100C C131U U132C G139A | 1.71 |
| U100C G105A A124U | 2.16 |
| U100C G106A A140G | 2.32 |

| Variant | self-cleavage |
| --- | --- |
| U100C G125A A140G | 2.21 |
| U100C U108G C116U U119G | 2.51 |
| U100C U109C A140U | 2.41 |
| U100C U109C U115C | 0 |
| U100C U115C C131U | 1.73 |
| U100C U119A A136G | 1.89 |
| U100C U130C A140G A142G | 0.71 |
| U100C U132G U134A A141G | 1.62 |
| C101A A117G A140G | 1.53 |
| U102A A117G A129G A141G | 1.31 |
| U102A A117U C145U | 0.9 |
| U102A U112A A124G | 1.32 |
| U102A U130A A140G | 2.97 |
| U102C A117G A136G G137U | 2.9 |
| U102C C113U U119C A140U | 2.52 |
| U102C C116U A138G | 1.09 |
| U102C G114A A136U | 2.04 |
| U102C G114A A138G A140G | 1.17 |
| U102C G122A U134C A141G | 1.45 |
| U102C G125U U143C | 1.58 |
| U102C U108C A138G | 1.91 |
| U102C U109C C123U | 0.92 |
| U102C U115A A124G | 1.04 |
| U102C U134C G135U | 1.34 |

| Variant | self-cleavage |
| --- | --- |
| U102G G126A C128U | 0.38 |
| C103A C131U A141G | 1.13 |
| C103A U109C U132C | 1.47 |
| U104A A140U G144A | 1.23 |
| U104A U109A A142G C145A | 0.8 |
| U104A U109C G126A | 1.45 |
| U104A U115C U134A | 2.9 |
| U104A U119A A124C U134C | 1.31 |
| U104A U134C A138G | 1.99 |
| U104C A107G A141G | 1.17 |
| U104C A117G A121G | 0.92 |
| U104C A136G A141G | 1.89 |
| U104C A138G A140U | 1.2 |
| U104C G114A A138G | 2.07 |
| U104C U108C A124U U143C | 2.63 |
| U104C U109C A138G A142U | 0.85 |
| U104C U115A A140G | 1.31 |
| U104C U119C U143C | 1.02 |
| G105U U130A A141G | 1.21 |
| G106A A107G U108C U134C | 0.96 |
| G106A U108C U115A | 1.64 |
| G106U A117G U130C | 1.29 |
| G106U C111A A140G | 1.23 |
| A107C U134C G144A | 2.86 |

| Variant | self-cleavage |
| --- | --- |
| A107G A121G A129C A136G | 2.7 |
| A107G A141G U143A | 1.96 |
| A107G C116U U143A | 1.21 |
| A107G U108A A129G | 0.37 |
| A107G U115C A121U | 1.84 |
| A107G U115G U132C | 0 |
| A107G U119A A129U | 1.07 |
| A107G U119A A142G U143C | 1.25 |
| A107G U119C U143A | 0.7 |
| A107U A129G U134C | 1.7 |
| A107U A138G U143A | 1.53 |
| A107U A140C A142G | 1.47 |
| A107U U112C U119C A136G | 2 |
| A107U U119A A121U | 1.08 |
| A107U U119C A121U A140G | 2.48 |
| U108A A117U U130C | 1.91 |
| U108A U115A A124U | 2.6 |
| U108A U132C U134A | 0.79 |
| U108A U134A A141G | 1.69 |
| U108C A117G U130C | 1.84 |
| U108C A121C U132C A140C | 2.3 |
| U108C A124G G126U | 2.07 |
| U108C C110U A117G U143C | 2.47 |
| U108C C128A U143A | 1.92 |

| Variant | self-cleavage |
| --- | --- |
| U108C U112C A129G | 1.15 |
| U108C U115C G126A | 2.44 |
| U108C U119A A138G | 1.31 |
| U108C U132C A136G U143C | 2.45 |
| U108G G114A U143C | 0.92 |
| U109A A140G U143G | 0.49 |
| U109A G127U A142G | 1.4 |
| U109A U115C G127U | 1.47 |
| U109A U115C U143A | 0.94 |
| U109A U132C A138G G144A | 1.57 |
| U109C A117U A142G | 1.21 |
| U109C A124U U143A | 1.59 |
| U109C A129G A136G | 1.24 |
| U109C U112A U132C | 1.57 |
| U109C U115C A136G | 0.89 |
| U109C U134C G137A | 0.84 |
| U109G U112C A140U | 1.71 |
| U112A A124G U132A | 2.27 |
| U112A A129U U130C | 2.55 |
| U112C A141G A142G | 0.84 |
| U112C A142C C145U | 1.04 |
| U112C C123A C131U A140G | 1.13 |
| U112C G127U A129C | 1.14 |

From the RNAGym collection of RNA variant scans (doi:10.7554/elife.90254)
